About 16,000 (4.4%) of roughly 360,000 compounds were called active. The shares of active, inactive and inconclusive entries below differ from those in the screen. Calls come from the whole dose curve; as a rule, active = well fitted inhibition curve with a large enough effect; inconclusive = small, poorly fitted or top-dose-only effect; inactive = no such curve, though single readings can be large or run the other way. Where the call is inconclusive, the potency comes from a doubtful curve fit.
target: Bromodomain adjacent to zinc finger domain protein 2B (Homo sapiens) (UniProt Q9UIF8); assay: qHTS Assay for Inhibitors of BAZ2B; details: AlphaScreen BAZ2B-H3K14Ac peptide displacement; activity change, negative = inhibition: at 114 µM (top of the series) unless noted; note: nearly all actives have a fitted effect of over 60% in size
Outline: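 Compounds, titrated to a top concentration of 110 uM, were incubated 30 min at room temperature with preformed BAZ2B/acetyl-K14 H3 peptide complex (50 nM each). Proximity signal was measured by AlphaScreen after 20 min with beads.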
% is set by controls: 0 for no effect and ±100 for the full control effect; potency is the fitted concentration of half-maximal effect; tags give direction and shape of the fitted curve.

Chain of UniProt Q9UIF8 (Q9UIF8 whole entry, looked up, the tested form may be a part): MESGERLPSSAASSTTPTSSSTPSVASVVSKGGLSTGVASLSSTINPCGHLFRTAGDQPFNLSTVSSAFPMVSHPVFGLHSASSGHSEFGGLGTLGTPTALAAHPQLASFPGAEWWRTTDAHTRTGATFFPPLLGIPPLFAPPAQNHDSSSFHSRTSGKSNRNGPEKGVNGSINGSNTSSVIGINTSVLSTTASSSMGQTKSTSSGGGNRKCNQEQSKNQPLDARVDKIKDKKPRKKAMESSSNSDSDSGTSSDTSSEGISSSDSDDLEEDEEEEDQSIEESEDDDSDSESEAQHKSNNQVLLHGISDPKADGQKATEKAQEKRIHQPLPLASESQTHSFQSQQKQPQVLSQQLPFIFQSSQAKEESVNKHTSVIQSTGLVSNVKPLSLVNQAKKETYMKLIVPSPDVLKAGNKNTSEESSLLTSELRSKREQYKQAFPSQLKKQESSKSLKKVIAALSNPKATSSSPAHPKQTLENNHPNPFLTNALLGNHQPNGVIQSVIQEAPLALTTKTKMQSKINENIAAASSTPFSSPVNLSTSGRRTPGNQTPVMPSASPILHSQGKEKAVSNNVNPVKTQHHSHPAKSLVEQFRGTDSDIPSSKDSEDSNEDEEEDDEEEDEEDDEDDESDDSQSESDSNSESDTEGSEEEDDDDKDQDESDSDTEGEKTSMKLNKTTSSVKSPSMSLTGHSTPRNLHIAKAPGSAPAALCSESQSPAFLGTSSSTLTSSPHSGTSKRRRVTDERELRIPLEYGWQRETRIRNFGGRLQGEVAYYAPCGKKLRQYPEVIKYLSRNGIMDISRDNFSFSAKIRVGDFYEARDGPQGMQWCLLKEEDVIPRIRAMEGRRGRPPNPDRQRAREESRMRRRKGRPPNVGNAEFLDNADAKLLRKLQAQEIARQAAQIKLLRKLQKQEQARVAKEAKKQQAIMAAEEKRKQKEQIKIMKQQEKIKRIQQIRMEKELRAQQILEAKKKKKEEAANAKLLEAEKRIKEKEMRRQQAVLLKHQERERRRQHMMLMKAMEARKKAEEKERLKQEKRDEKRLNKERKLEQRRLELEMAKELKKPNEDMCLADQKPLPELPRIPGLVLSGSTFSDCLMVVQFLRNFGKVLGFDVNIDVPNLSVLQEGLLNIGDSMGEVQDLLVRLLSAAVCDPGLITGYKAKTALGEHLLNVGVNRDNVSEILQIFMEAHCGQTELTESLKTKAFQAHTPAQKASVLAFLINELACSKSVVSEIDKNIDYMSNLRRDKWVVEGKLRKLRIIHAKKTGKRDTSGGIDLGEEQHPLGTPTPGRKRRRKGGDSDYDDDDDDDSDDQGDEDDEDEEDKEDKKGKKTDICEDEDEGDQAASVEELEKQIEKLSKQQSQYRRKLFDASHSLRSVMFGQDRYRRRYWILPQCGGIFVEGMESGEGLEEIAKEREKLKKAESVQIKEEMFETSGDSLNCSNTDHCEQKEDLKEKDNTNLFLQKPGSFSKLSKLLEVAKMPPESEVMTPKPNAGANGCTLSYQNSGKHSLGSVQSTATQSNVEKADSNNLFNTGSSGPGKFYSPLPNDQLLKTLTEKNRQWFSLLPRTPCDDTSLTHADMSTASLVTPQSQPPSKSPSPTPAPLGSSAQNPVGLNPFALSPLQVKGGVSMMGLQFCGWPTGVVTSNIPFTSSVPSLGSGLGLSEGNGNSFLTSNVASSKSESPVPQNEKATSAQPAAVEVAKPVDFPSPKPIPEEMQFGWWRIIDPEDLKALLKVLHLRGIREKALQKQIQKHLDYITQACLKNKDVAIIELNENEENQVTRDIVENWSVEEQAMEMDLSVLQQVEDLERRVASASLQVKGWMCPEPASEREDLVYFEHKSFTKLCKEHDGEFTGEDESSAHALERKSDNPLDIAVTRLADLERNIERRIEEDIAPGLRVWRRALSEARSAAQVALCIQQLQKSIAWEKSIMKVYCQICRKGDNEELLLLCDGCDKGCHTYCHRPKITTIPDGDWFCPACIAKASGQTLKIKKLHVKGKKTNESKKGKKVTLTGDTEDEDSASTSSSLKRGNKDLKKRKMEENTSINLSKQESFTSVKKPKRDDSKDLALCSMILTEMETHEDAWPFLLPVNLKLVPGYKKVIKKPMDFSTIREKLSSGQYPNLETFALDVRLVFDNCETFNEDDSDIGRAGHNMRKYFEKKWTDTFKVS

Compound	Potency	activity change, negative = inhibition
Cc1nc2sccn2c(=O)c1CCN1CCC(=C(c2ccc(F)cc2)c2ccc(F)cc2)CC1	inconclusive: 35.5 µM [inhibitor, partial curve]	–
COc1ccc2[nH]c(=O)c(CNc3cc(C)ccc3C)cc2c1	active: 50.1 µM	–
COC(=O)[C@@]1(Cc2ccc(OC)cc2)[C@H]2c3cc(C(=O)N(C)C)[nH]c3C[C@H]2CN1C(=O)c1ccccc1	active: 56.2 µM	–
CCN(CC)c1ccc(/C=N/N2CCN(Cc3ccc(Cl)cc3)CC2)c(O)c1	active: 3.55 µM	–
CCCCc1nc2ccccc2n2c(-c3ccc(OC)cc3)c3c(=O)n(C)c(=O)n(C)c3c12	–	inactive: 26.2%
Cc1c(C)c2c(OCC(=O)N[C@@H](C(=O)O)c3ccccc3)cc3c(c2oc1=O)CCC(C)(C)O3	inconclusive: 79.4 µM [inhibitor, single point]	–
CC(=O)c1ccc(OC(=O)N(c2ccccc2)c2ccccc2)cc1	–	inactive: 7.48%
CC(Sc1c[nH]c2ccccc12)C(=O)O (stereo not given)	inconclusive: 100 µM [inhibitor, single point]	–
O=C(NCc1ccco1)C1CCCN(S(=O)(=O)c2cccc3nonc23)C1 (stereo not given)	inconclusive: 56.2 µM [inhibitor, partial curve]	–
COc1cc2c(cc1OC)C(c1ccc(N(C)C)cc1)CC(=O)N2 (stereo not given)	inconclusive: 89.1 µM [inhibitor, single point]	–
Oc1c(C(c2ccccc2F)N2CCCCC2)sc2nc(-c3ccco3)nn12 (stereo not given)	–	inactive: -13%
O=[N+]([O-])c1cccc(-c2nc(N3CCOCC3)c3ccccc3n2)c1	–	inactive: -3%
COc1ccc(NCc2nc3ccccc3n2CCOc2ccccc2)cc1	active: 17.8 µM	–
CC(C)c1nnc(NC(=O)CCC(=O)N2CCN(c3ccc(Cl)cc3)CC2)s1	inconclusive: 79.4 µM [inhibitor, single point]	–
COc1ccc(CC(=O)NC2CCN(Cc3nnnn3C(C)(C)C)CC2)cc1OC	inconclusive: 89.1 µM [inhibitor, single point]	–
O=C(COc1ccc([N+](=O)[O-])cc1)NCC1(N2CCOCC2)CCCCC1	inconclusive: 89.1 µM [inhibitor, single point]	–
O=C(O)C/C(=C\c1ccc(N2CCOCC2)c([N+](=O)[O-])c1)c1nc2ccccc2s1	active: 50.1 µM	–
CCOC(=O)N1CCN(C(=O)c2ccc(C)c(S(=O)(=O)N3CCCCC3)c2)CC1	–	inactive: -4.1%
Nc1nc(Nc2cccc(F)c2)nc(NCCO)c1[N+](=O)[O-]	–	inactive: -13.7%
CCOC(=O)c1noc(C)c1C(=O)Nc1nccs1	inconclusive: 89.1 µM [inhibitor, single point]	–

Reference: PubChem BioAssay AID504333 (National Center for Advancing Translational Sciences (NCATS), 2011)
